Data taken from patent US20220403048A1, “BINDING MOLECULES TO ARGINASE II [ARG2]” (Cancer Research Technology Limited, priority 2019, published 2022).

Key:
[1] = molecular target: T1, THP-1 lysate derived human trimeric ARG2 (Homo sapiens, UniProt P78540); assay: ELISA binding to THP-1 lysate derived human ARG2; conditions: biotinylated recombinant human IgG1, FIG. 6
T1 construct: expressed in transfected cells; host or cells: THP-1 cells overexpressing human ARG2 (cell lysate)
T1 sequence (P78540 23-354): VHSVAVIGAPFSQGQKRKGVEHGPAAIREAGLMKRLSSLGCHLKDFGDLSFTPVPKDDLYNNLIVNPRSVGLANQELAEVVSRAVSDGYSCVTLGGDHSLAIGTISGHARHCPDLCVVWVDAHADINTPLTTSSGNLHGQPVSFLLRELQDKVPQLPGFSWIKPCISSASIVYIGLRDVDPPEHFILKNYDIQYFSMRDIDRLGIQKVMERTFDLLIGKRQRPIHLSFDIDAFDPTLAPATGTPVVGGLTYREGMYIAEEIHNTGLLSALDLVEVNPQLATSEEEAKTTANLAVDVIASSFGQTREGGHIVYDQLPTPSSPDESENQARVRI
Experimental: C0020187 and C0020065 IgGs were tested for their ability to bind to mammalian expressed human ARG2 produced in transfected THP-1 cells. Lysates of human ARG2 transfected THP-1 cells were prepared and binding to these lysates measured using an ELISA.
Cell lysates were prepared from THP-1 cells overexpressing human ARG2 and from wild type THP-1 cells. Between 600,000-1,000,000 cells were suspended in 1 ml tris-buffered saline (25 mM tris+150 mM sodium chloride in dH2O, pH 7.4) and cell lysates prepared using QIAshredders (QIAgen, UK; cat: 79654).
For the ELISA, maxisorp white plates (Nunc; cat: 437796) were coated overnight at 4° C. with rabbit anti-human ARG2 antibody (Abcam, ab137069) at 1 μg/ml in PBS. The next day, the plate was washed with PBS and blocked with casein blocker (Thermo Scientific, 37528). […]
The blocked ELISA plate was washed with PBS and 50 μl of the pre-incubation mixtures were transferred to the ELISA plate and incubated for 90 minutes at room temperature. […] Next, 100 μl PICO ELISA substrate (Thermo Scientific, 37070) was added to each well, the plate was incubated for 1 minute at room temperature in the dark before being read for luminescence using the Envision plate reader. Data were analysed using GraphPad Prism. […]

ARG2 = molecular target: T2, ARG2 (Homo sapiens, UniProt P78540); assay: Size-exclusion chromatography of ARG2-Fab binding stoichiometry; design: human ARG2 (aa23-354); His10 (C); made in house; host or cells: E. coli BL21 (DE3); conditions: FIG. 23A
T2 sequence (P78540 23-354): T1 sequence (P78540 23-354)
Experimental: ARG2 and Fabs were analysed at concentrations of 8 μM (referring to monomers) in SEC buffer containing 25 mM tris at pH 7.4 and 150 mM NaCl. ARG2-Fab complexes were formed by mixing both ARG2 and Fabs at concentrations of 8 μM (referring to monomers) in SEC buffer and incubation on ice for 1 h. For size-exclusion chromatography, […] of sample were injected into a 100 μl loop connected to a Superose 6 Increase 10/300 GL column (GE Healthcare) which was mounted to an AKTAexpress FPLC system (GE Healthcare). The column was equilibrated in SEC buffer, and SEC was performed at a flow rate of 0.5 ml/min. Molecular-weight estimates are based on the retention volumes seen for β-amylase, bovine serum albumin and carbonic anhydrase, which were analysed on the same FPLC system under identical conditions.

binding to THP-1 lysate derived human trimeric ARG2 [1]: strong binding | size-exclusion peak of 1:1 molar mixture of ARG2 and Fab (ARG2; 8 μM each): 150 kDa | Fabs bound to one ARG2 trimer (ARG2; from size-exclusion profile): one fab
B1: C0020187: anti-ARG2 antibody, parent lead isolation clone, VH SEQ ID NO: 12, VL SEQ ID NO: 17 (antibody, listed as Homo sapiens, V domains shown)
VH: [about 100 residues not given here]LRADLGLYMDLWGRGTLVTVSS
VL: QSVLTQPPSVSAAPGQKVTISCSGSSSNIGNHYVSWYQQLPGTAPKLLIYDNSERPSGIPDRFSGSKSGTSATLGITGLQTGDEADYYCGTWDSSLSALVFGGGTKLTVL
modifications: C0020187
